From the BET-seq Pho4 binding data (Le et al. 2018)
The other results are listed elsewhere or left out. Values were computed here from the reads of four pooled replicates and scatter widely.

Biological target: T1, Pho4 (S. cerevisiae) (UniProt P07270)
T1 sequence: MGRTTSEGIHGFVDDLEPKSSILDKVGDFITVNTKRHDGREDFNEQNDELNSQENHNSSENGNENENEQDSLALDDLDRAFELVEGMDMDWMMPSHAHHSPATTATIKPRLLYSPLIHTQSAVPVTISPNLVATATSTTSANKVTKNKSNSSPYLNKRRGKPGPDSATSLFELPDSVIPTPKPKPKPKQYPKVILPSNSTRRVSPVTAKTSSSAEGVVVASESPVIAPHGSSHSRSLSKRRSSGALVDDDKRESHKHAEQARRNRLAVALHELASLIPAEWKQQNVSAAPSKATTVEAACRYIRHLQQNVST
Test: relative binding free energy (BET-seq); higher = weaker binding
Settings: reference: library average

| Sequence | relative binding free energy [kcal/mol] |
| --- | --- |
| TTCTTCACGTGTTTGT | 0.23 |
| TTGATCACGTGACATG | 0.33 |
| TGTACCACGTGCGGGT | -0.08 |
| AGACGCACGTGGGTTA | -0.2 |
| TGGCTCACGTGGTGTT | 0.18 |
| AAGGCCACGTGCAGGG | -0.07 |
| TTTATCACGTGTGTAG | 0.2 |
| GGGGGCACGTGTGACT | -0.01 |
| TTCGTCACGTGTCGAG | 0.15 |
| GGTAGCACGTGGTTGA | -0.15 |
| CTTGTCACGTGTTTAG | 0.04 |
| GTCTGCACGTGGTAGA | -0.03 |
| ACTTTCACGTGTGGTT | 0.28 |
| TGAAGCACGTGAAGTA | 0.19 |
| CAGGTCACGTGCGTGT | -0.04 |
| ATATGCACGTGGAGGT | -0.06 |
| TATTTCACGTGCATAT | 0.32 |
| ATTTGCACGTGGTTTA | -0.1 |
| GGGCTCACGTGAGATG | 0.55 |
| TCGAACACGTGGTGTT | -0.09 |
| ATGTACACGTGCGTAT | 0 |
| TTGGACACGTGGATAT | 0.18 |
| AAGTTCACGTGAGTCT | 0.45 |

| Sequence | relative binding free energy [kcal/mol] |
| --- | --- |
| GGACTCACGTGGTGGA | 0.32 |
| GGATTCACGTGGTTCT | 0.13 |
| GTGGCCACGTGTGGTT | -0.01 |
| AAGATCACGTGTTGTG | 0.23 |
| ATAGACACGTGGGCTT | -0.08 |
| TTTTGCACGTGGGGGT | -0.04 |
| CTTAGCACGTGTTAGG | -0.04 |
| GTTTTCACGTGTAGAA | 0.23 |
| ATGTGCACGTGTTTAC | 0 |
| TTAAACACGTGGATTA | 0.07 |
| ATTGTCACGTGCGTGC | 0.03 |
| TATGACACGTGTTGTT | 0.06 |
| TAACACACGTGTTTGG | 0.04 |
| TGAAACACGTGGTATT | -0.02 |
| TTTGTCACGTGTGCTG | 0.07 |
| ATAGTCACGTGAGGAA | 0.29 |
| TAATGCACGTGGTTCT | -0.2 |
| ATGTACACGTGTTGTA | 0.01 |
| TACGACACGTGTTGTT | 0.03 |
| TGGTACACGTGTTCGG | 0.13 |
| ACATGCACGTGTGGTG | 0.07 |
| TGTATCACGTGTATTT | 0.14 |
| GGGATCACGTGGCTTA | 0.06 |

| Sequence | relative binding free energy [kcal/mol] |
| --- | --- |
| TATGTCACGTGCTTGT | 0.07 |
| AGCTTCACGTGGGATT | 0.33 |
| GAGCGCACGTGCGTGG | -0.22 |
| TGGTTCACGTGAAGTA | 0.31 |
| AAGGTCACGTGTGAGC | 0.09 |
| TGAGTCACGTGGAAGA | 0.26 |
| TTGCTCACGTGGGCTT | 0.11 |
| GAGATCACGTGGGCAG | 0.25 |
| GTGTGCACGTGTAATG | -0.06 |
| TGTGGCACGTGTGATG | 0.06 |
| ATTGCCACGTGTTGTG | -0.12 |
| GTTGTCACGTGTAGCG | 0.25 |
| ATGAGCACGTGTGGGG | 0.04 |
| AGGGGCACGTGGATAT | -0.15 |
| AGTGGCACGTGGTTAA | -0.1 |
| ATTTGCACGTGGTACT | -0.09 |
| GTAGGCACGTGGTTAT | -0.2 |
| TTGTTCACGTGGAGGT | 0.3 |
| GGGGGCACGTGCGTGA | -0.19 |
| TGTCGCACGTGCGGGA | -0.19 |
| TGAAACACGTGAAGTG | 0.11 |
| TCTGACACGTGTAGTT | 0.05 |
| TTTTTCACGTGAAACT | 0.42 |

| Sequence | relative binding free energy [kcal/mol] |
| --- | --- |
| TTCGACACGTGAAAGG | 0.46 |
| GAATGCACGTGTGGCT | 0.06 |
| AGCGGCACGTGGAAGT | 0.03 |
| GTGGGCACGTGTCTGG | -0.14 |
| TATAGCACGTGAAGGT | 0.07 |
| CTTCACACGTGTTGGT | 0.05 |
| TGGGTCACGTGTATGC | 0.16 |
| ACTTGCACGTGGGTTG | -0.06 |
| TAGAACACGTGTAGGT | -0.04 |
| AACTGCACGTGTTGTG | 0.06 |
| TGGGGCACGTGAGATC | 0 |
| AGGGGCACGTGAGGCA | -0.04 |
| GGCAGCACGTGTGTGC | -0.03 |
| GTATGCACGTGTATGC | -0.08 |
| GTTGTCACGTGCGACG | 0.17 |
| TGTTTCACGTGCTTGA | 0.19 |
| ATAGCCACGTGGGGTG | -0.28 |
| GGGGTCACGTGATGTC | 0.36 |
| GGGCCCACGTGGTTGG | -0.04 |
| TGAAGCACGTGAATGT | 0.19 |
| CAGAGCACGTGTTGTT | -0.1 |
| CGGGGCACGTGTGTTT | -0.02 |
| GTTGGCACGTGGGGCT | -0.11 |

| Sequence | relative binding free energy [kcal/mol] |
| --- | --- |
| CAGGTCACGTGGTTGG | 0.1 |
| GGTTACACGTGCATAG | 0.14 |
| TGAGACACGTGAGGGT | 0.24 |
| GGGGACACGTGTTAGC | -0.04 |
| GTTGACACGTGCAAGT | 0.1 |
| CGGTGCACGTGGGTAA | -0.16 |
| TTGAGCACGTGACAGT | 0.12 |
| ACATTCACGTGGGATT | 0.06 |
| ATTAACACGTGTTTAG | -0.05 |
| TTAGCCACGTGAGGGT | 0.1 |
| GTGGGCACGTGTCGCA | -0.12 |
| CGGTGCACGTGAGAGT | 0.08 |
| CTGTTCACGTGGGTTG | 0.12 |
| TAGGGCACGTGAAAGT | 0.14 |
| TGAGCCACGTGCGTGG | -0.1 |
| GTGTGCACGTGCTTCG | 0.06 |
| GGTTGCACGTGTTCGT | 0.03 |
| TGCGGCACGTGTGGTC | -0.09 |
| AAATGCACGTGGGGGA | -0.19 |
| CGTTACACGTGCGGGT | 0.07 |
| CATGTCACGTGGCTGT | 0.08 |
| CTGGCCACGTGGTCGG | -0.1 |
| ATTGTCACGTGTAATC | 0.29 |
